# Measured values as given in PubChem BioAssay AID743279 (National Center for Advancing Translational Sciences (NCATS), 2014).
# Hit rate of the full screen: of about 360,000 compounds, about 17,000 (4.7%) were called active. Inconclusive means that the source gave no clear call. Such entries were picked first, then a sample of the others. No stated cut-off is given here; in the data, active means activity change below about -50%; inconclusive means mostly about -30% to -49%; inactive means weaker than that.
# Assay: qHTS for Inhibitors of Inflammasome Signaling: IL-1-beta AlphaLISA Primary Screen
# Settings: THP-1 LPS/ATP IL-1B secretion, 16 h; at 57.5 µM, stronger effect = lower value
# Method in brief: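 Secreted IL-1B measured by AlphaLISA bead assay after 16 h compound exposure of THP-1 cells; compounds (final up to 57.5 uM) added 1 h before LPS (250 ng/mL) and ATP (1.25 mM) stimulation; lower signal means less secretion.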
# On the % scale 0 is the no-effect control and ±100 the full control effect.
row,Compound,activity change
1,COCCCNC(=S)NCCNc1nc2cc(C)cc(C)c2cc1C#N,inconclusive: -43.5%
2,CCCSc1ccc([C@H]2N[C@@](CC(C)C)(C(=O)OC)[C@H]3C(=O)N(CC)C(=O)[C@@H]23)cc1,inconclusive: -45.6%
3,CCOC(=O)[C@]12CCCC=C1N(Cc1ccc3c(c1)OCO3)C(=O)[C@H](CC(=O)NCCCCc1ccccc1)C2,active: -63%
4,COc1ccc(-c2csc(N3CCN(C(=O)c4ccco4)CC3)n2)cc1,inconclusive: -33.2%
5,CC(C)Cn1c(SCC(=O)Nc2ccc3[nH]c(=O)[nH]c3c2)nc2ccccc2c1=O,inconclusive: -42%
6,CNC(=O)/C(C#N)=C/c1c(N2CCN(c3ccc(OC)cc3)CC2)nc2c(C)cccn2c1=O,inconclusive: -43.1%
7,CCCCn1cnc2c(Sc3c([N+](=O)[O-])ncn3C)nc(N)nc21,active: -94.7%
8,CCOc1ccccc1C(C(=O)NC1CCCCC1)N(C(=O)c1csnn1)C1CC1 (stereo not drawn),inconclusive: -33.2%
9,COc1cccc(-c2sc3ccc(OC)cc3c2-c2ccc(OCCN3CCCC3)cc2)c1,inconclusive: -40.3%
10,CCCCCC(=O)N1CCN(S(=O)(=O)c2ccc3c(c2)OCCO3)CC1,inactive: 8.99%
11,CCN(CC)c1ccc(N2C(=NC(=O)C3CCCO3)SC3CS(=O)(=O)CC32)cc1 (stereo not drawn),inconclusive: -43.7%
12,N#Cc1c(NC(=O)c2ccc(-c3ccccc3[N+](=O)[O-])o2)sc2c1CCCC2,inconclusive: -33.9%
13,O=C(NC(c1ccc(Cl)cc1)c1cc(Cl)c2cccnc2c1O)c1cccnc1 (stereo not drawn),inconclusive: -48.8%
14,CC(C(=O)NC1CCCC1)N(C(=O)c1ccc(-c2ccccc2)[nH]1)c1ccccc1F (stereo not drawn),inconclusive: -38.7%
15,C/C(N)=C(/C#N)C(=O)COC(=O)c1ccncc1,inconclusive: -39.1%
16,c1cc2c(cc1C1CCCCC1)c1c3n2CCN=C3CCC1,inconclusive: -39%
17,O=C(NC12CC3CC(CC(C3)C1)C2)C1CC(=O)N(c2ccc(Br)cc2)C1 (stereo not drawn),inactive: 4.9%
18,CCN(C[C@H]1N[C@@](C)(C(=O)OC)[C@H]2C(=O)N(C)C(=O)[C@@H]12)S(=O)(=O)c1ccc(OC(F)(F)F)cc1,inactive: 19.5%
19,N#CC1=C(SCc2ccccc2)NC(=O)CC1c1cccc(O)c1 (stereo not drawn),active: -54.1%
20,CC(C)(C)Cc1c(-c2cccc(Cl)c2)nc2ccc(Br)cn12,inconclusive: -46.3%
21,Nc1ccccc1S(N)(=O)=O,inactive: 0%
22,CC(C)C[C@H]1CN(CCCC[C@@H]2CNC(=O)C(=O)N2Cc2ccccc2)C(=O)C(=O)N1CCC1CCCCC1,inconclusive: -32.2%

row,Compound,activity change
1,CCC(=O)N1CCN(c2ccc(Cl)cc2NC(=O)Cc2ccc(Cl)cc2)CC1,inconclusive: -30.2%
2,COc1ccc(C(=O)Nc2cc(C)on2)cc1,inconclusive: -32.1%
3,NC(=O)C(C(=O)/C=C/c1ccc(Cl)cc1)=C1SCCS1,active: -99.2%
4,O=C(Nc1ccc(Cl)c(Cl)c1)Nc1nnc(CSc2ccccc2)s1,inconclusive: -39.7%
5,c1cncc(-c2nc3c(ccc4ccccc43)[nH]2)c1,inconclusive: -32.2%
6,CCOC(=O)C1(CCOc2ccccc2)CCN(Cc2ccc(OCCO)cc2)CC1,inconclusive: -47.7%
7,Cc1cccnc1Nc1nc(-c2ccc(O)cc2)cs1,inconclusive: -37.1%
8,COC(=O)[C@]12CCCCC=C1N(Cc1ccc(Cl)cc1Cl)C(=O)[C@H](CC(=O)N1CCN(C(=O)C3CC3)CC1)C2,inactive: -16.4%
9,O=C(O)C(c1ccccc1)N1CCCC1 (stereo not drawn),inactive: 0%
10,COC(=O)c1cccc(NC(=O)CSc2nc(=O)cc(N)n2-c2ccccc2)c1,inactive: -3.39%
11,Cc1cccc(C(=O)NNC(=O)C2CC2)c1,inactive: 0%
12,CCN(CC)C(=O)C1=C(C)N(CCCOC)C(=O)C(CC(=O)NC2CC2)C1 (stereo not drawn),inactive: 7.82%
13,O=C(Nc1ccc(F)c(F)c1)NC1CCCCC1,inconclusive: -40.6%
14,COc1ccc(-n2c(CCc3ccccc3)nnc2SCC(=O)c2ccc(Cl)cc2)cc1,inconclusive: -33%
15,CCn1c(SCC(=O)N2CCN(c3cccc(Cl)c3)CC2)nc2ccccc2c1=O,inconclusive: -32.1%
16,COc1ccc(NC(=O)CN2CCCC2c2cccs2)cc1S(=O)(=O)N1CCCCC1 (stereo not drawn),inconclusive: -48.9%
17,Cc1ccc(C)c(N2N=C(C(=O)NCCN3C(=O)S/C(=C\c4cccnc4)C3=O)CCC2=O)c1,inactive: -8.44%
18,CC1(C(=O)N2CC3(CC(c4cccc(NC(=O)COc5ccc(Cl)cc5)c4)=NO3)C[C@@H]2C(N)=O)CC1 (stereo partly drawn),inconclusive: -30.2%
19,O=c1[nH]c2cc(Cl)cc([N+](=O)[O-])c2c2ccc(Cl)cc12,inactive: 22.1%
20,CCCN1CCc2[nH]c(=S)[nH]c(=O)c2C1,inactive: 14.9%
21,Cc1ccc(NC(=S)N2CCN(c3ccccn3)CC2)cc1C,inactive: -0.51%
